From the antibiotic and cytotoxicity screens of Wong et al. (2023)
The list shows a part of the results.

Key:
[1] = test system: HSkMC (human skeletal muscle cells); assay: cytotoxicity call (relative viability < 0.9); settings: 10 µM
[2] = test system: HepG2; assay: cytotoxicity call (relative viability < 0.9); settings: 10 µM
[3] = test system: S. aureus RN4220; assay: growth inhibition call (relative growth <= 0.2); settings: 50 µM

COc1ccc(S(=O)(=O)N(C)C[C@@H]2Oc3c(NS(=O)(=O)c4ccc(C)cc4)cccc3C(=O)N([C@@H](C)CO)C[C@@H]2C)cc1
inactive: cytotoxicity call [1] | cytotoxicity call [2] | growth inhibition call [3]

C[C@H]1CCCCO[C@H](CN(C)C(=O)Nc2ccccc2)[C@@H](C)CN([C@@H](C)CO)C(=O)c2cc(NS(=O)(=O)c3ccc(F)cc3)ccc2O1
inactive: cytotoxicity call [1] | cytotoxicity call [2] | growth inhibition call [3]

C[C@@H]1CN([C@@H](C)CO)C(=O)c2cc(Br)cnc2O[C@@H]1CN(C)S(=O)(=O)c1ccc(F)cc1
inactive: cytotoxicity call [1] | cytotoxicity call [2] | growth inhibition call [3]

O=C1CNC(=O)CN1
inactive: cytotoxicity call [1] | cytotoxicity call [2] | growth inhibition call [3]

O=C(C[C@@H]1C[C@@H]2c3cc(NC(=O)C4CCOCC4)ccc3O[C@@H]2[C@@H](CO)O1)NCCN1CCCCC1
inactive: cytotoxicity call [1] | cytotoxicity call [2] | growth inhibition call [3]

COc1cccc(C#Cc2ccc3c(c2)O[C@@H](CN(C)S(=O)(=O)c2ccccc2F)[C@@H](C)CN([C@@H](C)CO)S3(=O)=O)c1
inactive: cytotoxicity call [1] | cytotoxicity call [2] | growth inhibition call [3]

C[C@@H]1CN(C)C(=O)c2cccc(NC(=O)c3ccncc3)c2O[C@H]1CN(C)Cc1ccc(Oc2ccccc2)cc1
inactive: cytotoxicity call [1] | cytotoxicity call [2] | growth inhibition call [3]

Cc1noc(C)c1S(=O)(=O)Nc1ccc2c(c1)CC(=O)N([C@H](C)CO)C[C@@H](C)[C@H](CN(C)Cc1ccc(Oc3ccccc3)cc1)O2
inactive: cytotoxicity call [1] | cytotoxicity call [2] | growth inhibition call [3]

COc1ccc(CN(C)C[C@@H]2Oc3ccc(NC(=O)Nc4cccc5ccccc45)cc3C(=O)N([C@@H](C)CO)C[C@@H]2C)cc1
inactive: cytotoxicity call [1] | cytotoxicity call [2] | growth inhibition call [3]
